# Laboratory results as given in PubChem BioAssay AID588342 (National Center for Advancing Translational Sciences (NCATS), 2011).
# Among all 360,000 compounds or so, about 25,000 (6.9%) were called active. The inconclusive results got no clear call from the source; some entries with a clear call stand among them for comparison. Calls follow the shape of the dose curve; as a rule, active = well fitted inhibition curve with a large enough effect; inconclusive = small, poorly fitted or top-dose-only effect; inactive = flat fitted curve, though single readings scatter. Where the call is inconclusive, the potency comes from a doubtful curve fit.
# Target: Luciferin 4-monooxygenase (Photinus pyralis) (UniProt P08659)
# Experiment: qHTS profiling assay for firefly luciferase inhibitor/activator using purifed enzyme and Km concentrations of substrates (counterscreen for miR-21 project); also: nearly all actives have a fitted effect of over 55% in size;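 as to activity change, negative = inhibition: plate controls were vehicle for no effect and reference inhibitor for full effect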
# Conditions: purified FLuc, luminescence inhibition; series mostly up to 57.5 µM; activity change, negative = inhibition: at the top concentration
# Procedure, shortened: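 Purified P. pyralis luciferase (10nM final) with 10uM D-luciferin and 10uM ATP (Km levels) in 50mM Tris acetate pH 7.5, 10mM Mg acetate, 0.01% Tween-20, 0.05% BSA; qHTS 6-point titration, ~60 µM downward; luminescence read.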
# Potency is read from the fitted curve at half-maximal effect; tags tell the direction and shape of the fitted curve.
# UniProt P08659, sequence (P08659 whole entry, looked up): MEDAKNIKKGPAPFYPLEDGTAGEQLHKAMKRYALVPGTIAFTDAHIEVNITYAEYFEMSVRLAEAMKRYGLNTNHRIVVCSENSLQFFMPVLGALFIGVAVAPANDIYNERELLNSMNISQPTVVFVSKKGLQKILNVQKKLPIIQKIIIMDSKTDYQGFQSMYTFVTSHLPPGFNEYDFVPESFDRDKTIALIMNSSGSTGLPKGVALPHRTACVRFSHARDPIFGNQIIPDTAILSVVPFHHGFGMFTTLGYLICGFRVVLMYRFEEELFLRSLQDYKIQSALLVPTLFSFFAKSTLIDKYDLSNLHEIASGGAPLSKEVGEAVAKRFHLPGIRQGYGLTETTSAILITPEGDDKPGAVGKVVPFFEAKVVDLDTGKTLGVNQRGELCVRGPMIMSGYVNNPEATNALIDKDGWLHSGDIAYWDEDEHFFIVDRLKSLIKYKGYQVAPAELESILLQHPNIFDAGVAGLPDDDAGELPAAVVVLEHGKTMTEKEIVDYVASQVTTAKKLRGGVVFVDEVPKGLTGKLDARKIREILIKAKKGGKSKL
Structure (SMILES),Potency,"activity change, negative = inhibition"
COc1ccc(-c2cc(C(=O)OCC(=O)c3c(N)n(C)c(=O)n(C)c3=O)c3ccccc3n2)cc1,active: 7.57 µM,–
CN(C)S(=O)(=O)c1cccc(-c2cn3cc(Cl)ccc3n2)c1,"inconclusive: 15.1 µM [inhibitor, partial curve, poor fit]",–
O=C(O)/C=C\C(=O)Nc1ccc(N2CCN(c3ccc(Cl)c(Cl)c3)CC2)cc1,"inconclusive: 37.9 µM [inhibitor, partial curve, poor fit]",–
CCOC(=O)c1cccc(NC(=O)CCc2ccccc2)c1,"inconclusive: 37.9 µM [inhibitor, single point]",–
O=C(NCc1ccc2c(c1)CCO2)Nc1ccccc1,active: 15.1 µM,–
CC(=O)O/N=C(\N)c1ccc(-c2csnn2)cc1,"inconclusive: 23.9 µM [inhibitor, partial curve, poor fit]",–
COc1ccc(NC(=O)CSc2nc(-c3ccco3)nc3cc(=O)[nH]n23)cc1Cl,"inconclusive: 26.9 µM [inhibitor, single point]",–
O=C(/C=C/c1ccc([N+](=O)[O-])cc1)c1cccnc1,"inconclusive: 30.1 µM [inhibitor, partial curve, poor fit]",–
S=c1[nH]nc(-c2cccs2)n1/N=C/c1c(Cl)cccc1Cl,"inconclusive: 12 µM [inhibitor, partial curve]",–
COc1ccc(CNC(=O)COC(=O)CCOc2ccc(C)cc2)cc1OC,"inconclusive: 37.9 µM [inhibitor, single point]",–
COc1ccc(COC(=O)c2c(C)nn(-c3ccccc3)c2Cl)cc1,"inconclusive: 30.1 µM [inhibitor, partial curve, poor fit]",–
Cc1ccc(-n2nc(C(=O)N3CCN(c4cccc(C(F)(F)F)c4)CC3)c3c4ccccc4n(C)c3c2=O)cc1,–,inactive: 0.465%
Cc1ccc(NS(=O)(=O)Cc2ccccc2)nc1,"inconclusive: 42.6 µM [inhibitor, partial curve, poor fit]",–
Cc1cccc2c1-c1sc(C(=O)N3CCc4ccccc4C3)cc1CO2,"inconclusive: 21.3 µM [inhibitor, single point]",–
COCCn1c(SCC(=O)c2ccccc2)nc2ccccc2c1=O,"inconclusive: 30.1 µM [inhibitor, partial curve, poor fit]",–
COc1ccc(NC(=O)N2CCCC(c3nc(-c4ccc(C(C)C)cc4)no3)C2)cc1 (stereo not drawn),"inconclusive: 19 µM [inhibitor, partial curve]",–
CCCCCOc1ccc(Cl)cc1CN1CCOCC1,active: 15.1 µM,–
O=C(CSc1nnc(Cc2ccsc2)o1)c1ccccc1,"inconclusive: 19 µM [inhibitor, partial curve]",–
